In experiment [1] the target is human β2 extracellular domain (residues 30–153) C55A (human) (UniProt O60939). Kind of experiment: SEC; […] (250 mM KCl, 10 mM HEPES pH 7.4); both purified.
Experiment [2] deals with rat β4 subunit, wild type, myc-tagged (rat) (UniProt Q7M730). Description: non-reducing gel and Western blot of crude lysate (co-migration of a covalent complex); crude lysate of injected Xenopus oocytes, 10 μg a lane, non-reducing conditions, probed with anti-PanNav and anti-myc.
Experiment [3] has as its target rat β2 subunit, wild type, myc-tagged (rat) (UniProt P54900). The description is as above.
For experiment [4], the target named is rat β4 subunit, wild type, myc-tagged (rat) (UniProt Q7M730). Description: co-IP; lysate of injected Xenopus oocytes (1x PBS, 1% DDM, 10% glycerol, 1 mM EDTA); β-subunit pulled down with anti-myc antibody and protein G Dynabeads at 4°C; eluate treated with DTT before the tris-acetate gel; channel detected with anti-PanNav.
Experiment [5] deals with rat β2 subunit, wild type, myc-tagged (rat) (UniProt P54900). The experiment is described as above.
Experiment [6] has as its target rat β2 subunit C55S, myc-tagged (rat) (UniProt P54900). Kind of experiment: non-reducing gel and Western blot of crude lysate (co-migration of a covalent complex); crude lysate of injected Xenopus oocytes, 10 μg a lane, non-reducing conditions, probed with anti-PanNav and anti-myc.
Experiment [7] deals with human β2 extracellular domain (residues 30–153) C55A, C72A, C75A (human) (UniProt O60939). Kind of experiment: SEC; […] (250 mM KCl, 10 mM HEPES pH 7.4); both purified.
The target in experiment [8] is rat β2 subunit C55S, myc-tagged (rat) (UniProt P54900). Description: co-IP; lysate of injected Xenopus oocytes (1x PBS, 1% DDM, 10% glycerol, 1 mM EDTA); β-subunit pulled down with anti-myc antibody and protein G Dynabeads at 4°C; eluate treated with DTT before the tris-acetate gel; channel detected with anti-PanNav.
Experiment [9] concerns the target rat β2 subunit, wild type, myc-tagged (rat) (UniProt P54900). Description: gel with DTT and Western blot of crude lysate (co-migration of a covalent complex); crude lysate of injected Xenopus oocytes, DTT added, probed with anti-PanNav and anti-myc.

Amino acid sequences for entries named in this document (tags omitted). A change or cut given only in a name is not applied to a line headed by its entry. Chains listed by the source or under a name are the forms on record and can include a tag or linker. Residues count along the entry.
UniProt Q7M730, residues 31-228: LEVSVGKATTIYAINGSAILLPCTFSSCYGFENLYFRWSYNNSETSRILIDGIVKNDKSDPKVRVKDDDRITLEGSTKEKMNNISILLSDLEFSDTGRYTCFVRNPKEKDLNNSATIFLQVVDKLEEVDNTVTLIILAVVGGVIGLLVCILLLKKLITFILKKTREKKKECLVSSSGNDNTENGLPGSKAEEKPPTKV
rat β2 subunit, wild type, myc-tagged (P54900, residues 30-215): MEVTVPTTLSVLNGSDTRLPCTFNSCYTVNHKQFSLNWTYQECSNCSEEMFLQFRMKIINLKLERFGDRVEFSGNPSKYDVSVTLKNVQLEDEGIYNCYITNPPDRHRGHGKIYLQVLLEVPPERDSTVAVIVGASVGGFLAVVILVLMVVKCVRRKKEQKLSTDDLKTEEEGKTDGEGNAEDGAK
rat β2 subunit C55S, myc-tagged (P54900, form named): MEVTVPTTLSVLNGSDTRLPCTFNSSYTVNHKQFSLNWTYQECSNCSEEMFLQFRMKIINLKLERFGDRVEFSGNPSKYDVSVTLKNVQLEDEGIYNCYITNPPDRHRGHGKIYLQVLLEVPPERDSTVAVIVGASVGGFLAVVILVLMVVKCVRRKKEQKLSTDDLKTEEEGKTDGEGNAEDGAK

Results are given in words; binding and its absence hold for the method and conditions named. For some of these results: In cells and extracts the contact can be indirect. Some results given as binding are weak or reduced against the parent protein; the word gives no strength.

Take “human β2 extracellular domain (residues 30–153) C55A (from UniProt O60939 30-153) (domain or fragment)”: the binding result in [1] is reported as “no binding”.
For “rat Nav1.2a C910S (from UniProt P04775 1-2005)”, the binding entry in [2], in [3], in experiment [4] and in [5] was “no binding” each time.
Take “rat β2 subunit C55S, myc-tagged (from UniProt P54900 30-215)”: in experiment [6], the binding result is reported as “no binding”.
As for “human β2 extracellular domain (residues 30–153) C55A, C72A, C75A (from UniProt O60939 30-153) (domain or fragment)”, the binding result in experiment [7] is on record as “no binding”.
For “rat Nav1.2a, wild type (from UniProt P04775 1-2005)”, the binding entry in experiment [2] was “binds”; in [6], “no binding”; in experiment [3], “binds”; in experiment [4], “binds”; in [8] it was “no binding”; in experiment [5], “binds”. In addition, the binding entry in experiment [9] is “no binding (condition: with DTT)”.
“rat β2 subunit, wild type, myc-tagged (from UniProt P54900 30-215)”: the figures for the binding result in [3] and in experiment [9] were “binds” and “no binding (condition: with DTT)”, respectively.

Values taken from article PMC4769172.
